These are literature values, as cited in article PMC11006913.

Positions count from the first letter of the chain named. This is one part of the list.

Among the targets are ARX (Homo sapiens) (UniProt Q96QS3); ARX L343Q (Homo sapiens) (UniProt Q96QS3); ARX P353L (Homo sapiens) (UniProt Q96QS3); ARX P353R (Homo sapiens) (UniProt Q96QS3); ARX R332H (Homo sapiens) (UniProt Q96QS3); ARX T333N (Homo sapiens) (UniProt Q96QS3); ISX (Homo sapiens) (UniProt Q2M1V0); ISX R83Q (Homo sapiens) (UniProt Q2M1V0).
Common to all, as to conditions: PBM; conditions not shown; double strand, one strand shown; scale: upbm affinity estimate (log intensity, higher = more binding, comparable within an allelic series)
In data set [1] the target is T1, HESX1 E149K (Homo sapiens) (UniProt Q9UBX0).
T1 sequence: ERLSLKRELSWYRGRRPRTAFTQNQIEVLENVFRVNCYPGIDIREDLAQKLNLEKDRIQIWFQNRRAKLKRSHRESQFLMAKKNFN

For data set [2], the target named is T2, HESX1 N125S (Homo sapiens) (UniProt Q9UBX0).
T2 sequence: T1 sequence with N31S, K55E

Data set [3] concerns the target T3, HESX1 R160C (Homo sapiens) (UniProt Q9UBX0).
T3 sequence: T1 sequence with K55E, R66C

For data set [4], the target named is PROP1 R112Q (Homo sapiens) (UniProt O75360).
In data set [5] the target is PROP1 R99Q (Homo sapiens) (UniProt O75360).
The target of data set [6] is HOXD13 I297V (Homo sapiens) (UniProt P35453).
Data set [7] addresses HOXD13 I322L (Homo sapiens) (UniProt P35453).
Data set [8] addresses HOXD13 N298S (Homo sapiens) (UniProt P35453).
Data set [9] deals with HOXD13 Q325K (Homo sapiens) (UniProt P35453).
For data set [10], the target named is HOXD13 Q325R (Homo sapiens) (UniProt P35453).
For data set [11], the target named is HOXD13 R306W (Homo sapiens) (UniProt P35453).
For data set [12], the target named is HOXD13 S316C (Homo sapiens) (UniProt P35453).

For ACAATTAG [8-mer ACAATTAG], the binding signal in the data set with ARX (Homo sapiens) is 12.7; with ARX L343Q (Homo sapiens), 10.9; in the data set with ARX P353L (Homo sapiens), 12.3; with ARX P353R (Homo sapiens), 10.7; in the data set with ARX R332H (Homo sapiens), 11; with ARX T333N (Homo sapiens), 11.8. The binding signal in [1] is 11.5; in [2], 11.6; in data set [3] it was 10.4; in the data set with ISX (Homo sapiens) it was 14.8; in the data set with ISX R83Q (Homo sapiens), 13.6; in data set [4] it was 12.7. The binding signal in data set [5] was 12.2.
ATAATTGA [8-mer ATAATTGA]: the binding signal with ARX (Homo sapiens) was 12.8; with ARX L343Q (Homo sapiens) it was 11; in the data set with ARX P353L (Homo sapiens) it was 12.5; with ARX P353R (Homo sapiens), 10.8; with ARX R332H (Homo sapiens), 11.2; in the data set with ARX T333N (Homo sapiens) it was 12. In addition, the binding signal was 11.9 in [1]; 12.7 in data set [2]; 10.4 in [3]; 15.1 in the data set with ISX (Homo sapiens); 13.8 in the data set with ISX R83Q (Homo sapiens); 12.7 in data set [4]. Also, in data set [5], the binding signal was 12.3.
Take CTTAATTA [8-mer CTTAATTA]: the binding signal with ARX (Homo sapiens) was 13.3; with ARX L343Q (Homo sapiens), 11; with ARX P353L (Homo sapiens), 12.8; with ARX P353R (Homo sapiens) it was 10.9; with ARX R332H (Homo sapiens), 11.1; with ARX T333N (Homo sapiens) it was 12.5. Further, the binding signal was 12 in data set [1]; 13.7 in data set [2]; 10.4 in data set [3]; 15.6 with ISX (Homo sapiens); 15.4 in the data set with ISX R83Q (Homo sapiens); 12.9 in data set [4]. Moreover, in data set [5], the binding signal is 12.3.
As to ACTAATTA [8-mer ACTAATTA], the binding signal in the data set with ARX (Homo sapiens) was 13.4; with ARX L343Q (Homo sapiens), 11.1; with ARX P353L (Homo sapiens), 13.1; with ARX P353R (Homo sapiens) it was 11; with ARX R332H (Homo sapiens) it was 11.2; with ARX T333N (Homo sapiens), 12.6. In addition, the binding signal was 12.1 in data set [1]; 13.8 in data set [2]; 10.4 in data set [3]; 15.5 with ISX (Homo sapiens); 15.3 with ISX R83Q (Homo sapiens); 12.9 in data set [4]. The binding signal in data set [5] is 12.5.
Consider AATTAGTG [8-mer AATTAGTG], for which the binding signal with ARX (Homo sapiens) is 13; with ARX L343Q (Homo sapiens), 11; in the data set with ARX P353L (Homo sapiens) it was 12.5; with ARX P353R (Homo sapiens) it was 10.8; with ARX R332H (Homo sapiens), 11; in the data set with ARX T333N (Homo sapiens) it was 12.1. The binding signal was 11.5 in [1]; 11.6 in [2]; 10.3 in [3]; 14.9 in the data set with ISX (Homo sapiens); 13.9 in the data set with ISX R83Q (Homo sapiens); 12.7 in data set [4]. In addition, the binding signal in data set [5] is 12.3.
AATTAGTA [8-mer AATTAGTA]: the binding signal was 12.8 with ARX (Homo sapiens); 10.8 with ARX L343Q (Homo sapiens); 12.3 in the data set with ARX P353L (Homo sapiens); 10.8 with ARX P353R (Homo sapiens); 11 in the data set with ARX R332H (Homo sapiens); 12 with ARX T333N (Homo sapiens). Moreover, the binding signal was 11.4 in data set [1]; 11.4 in [2]; 10.4 in data set [3]; 14.6 with ISX (Homo sapiens); 13.5 with ISX R83Q (Homo sapiens); 12.6 in [4]. In addition, in data set [5], the binding signal is 12.2.
For the sequence AGCCGGCT [8-mer AGCCGGCT], the binding signal was 10.4 with ARX (Homo sapiens); 10 with ARX L343Q (Homo sapiens); 10.1 in the data set with ARX P353L (Homo sapiens); 10 with ARX P353R (Homo sapiens); 10.1 with ARX R332H (Homo sapiens); 10.3 in the data set with ARX T333N (Homo sapiens). Further, the binding signal in the data set with ISX (Homo sapiens) was 10.1; in the data set with ISX R83Q (Homo sapiens), 9.87.
CGACCTCG [8-mer CGACCTCG]: the binding signal with ARX (Homo sapiens), with ARX L343Q (Homo sapiens), with ARX P353L (Homo sapiens), in the data set with ARX P353R (Homo sapiens), with ARX R332H (Homo sapiens) and with ARX T333N (Homo sapiens) was 10.3 in each case. For the same sequence, the binding signal was 9.7 in [6]; 9.65 in [7]; 9.66 in data set [8]; 9.35 in data set [9]; 9.57 in [10]; 9.5 in [11]. The binding signal in data set [12] was 9.64.
CGCCCCGA [8-mer CGCCCCGA]: the binding signal with ARX (Homo sapiens) was 10.1; with ARX L343Q (Homo sapiens), 10.1; with ARX P353L (Homo sapiens), 10.1; with ARX P353R (Homo sapiens) it was 10; with ARX R332H (Homo sapiens) it was 10; in the data set with ARX T333N (Homo sapiens), 10.2. Besides, the binding signal is 9.37 in data set [6]; 9.41 in data set [7]; 9.31 in [8]; 9.55 in [9]; 9.39 in data set [10]; 9.35 in data set [11]. For the same sequence, the binding signal in [12] is 9.33.
Take AACTAATT [8-mer AACTAATT]: the binding signal is 12.8 with ARX (Homo sapiens); 10.9 in the data set with ARX L343Q (Homo sapiens); 12.3 with ARX P353L (Homo sapiens); 10.8 with ARX P353R (Homo sapiens); 11 in the data set with ARX R332H (Homo sapiens); 11.8 with ARX T333N (Homo sapiens). For the same sequence, the binding signal in data set [1] is 11.4; in data set [2], 11; in data set [3], 10.3; with ISX R83Q (Homo sapiens), 13.3; in [4], 12.7; in data set [5] it was 12.2.
For the sequence AATTAGAT [8-mer AATTAGAT], the binding signal with ARX (Homo sapiens) is 12.9; in the data set with ARX L343Q (Homo sapiens), 10.8; with ARX P353L (Homo sapiens), 12.4; with ARX P353R (Homo sapiens), 10.7; with ARX R332H (Homo sapiens) it was 11.1; in the data set with ARX T333N (Homo sapiens), 11.9. The binding signal in data set [1] is 11.3; in data set [2], 11.3; in data set [3], 10.3; in data set [4], 12.8; in data set [5], 12.2.
Regarding CCAGCCAG [8-mer CCAGCCAG], the binding signal in the data set with ARX (Homo sapiens) is 10.2; with ARX L343Q (Homo sapiens), 10.1; in the data set with ARX P353L (Homo sapiens) it was 10.2; in the data set with ARX P353R (Homo sapiens), 10.1; with ARX R332H (Homo sapiens), 10.1; with ARX T333N (Homo sapiens) it was 10.3. For the same sequence, the binding signal with ISX (Homo sapiens) is 9.8; with ISX R83Q (Homo sapiens) it was 9.72.
